Results: PubChem BioAssay AID686979 (National Center for Advancing Translational Sciences (NCATS), 2013)
About 50,000 (12%) of roughly 420,000 compounds were called active. The shares of active, inactive and inconclusive entries below differ from those in the screen. Calls come from the whole dose curve; as a rule, active = well fitted inhibition curve with a large enough effect; inconclusive = small, poorly fitted or top-dose-only effect; inactive = flat fitted curve, though single readings scatter. No potency is given beside an inconclusive call; the fits are too rough.

Assay: qHTS for Inhibitors of human tyrosyl-DNA phosphodiesterase 1 (TDP1): qHTS in cells in presence of CPT; note: nearly all actives have a fitted effect of over 55% in size
Conditions: chicken DT40 Tdp1-/-;hTDP1 cells + 20 nM CPT, ATP luminescence, 48 h; activity change, negative = growth inhibition: at 46.2 µM (top of the series) unless noted
Outline: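 Cell growth measured by CellTiter-Glo luminescence after a minimum 48 h, 37 C compound exposure with 20 nM CPT in Tdp1-knockout DT40 cells stably expressing hTDP1, seeded 400/well; qHTS titration format.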
% is set by controls: 0 for no effect and ±100 for the full control effect; potency is the fitted concentration of half-maximal effect; tags give direction and shape of the fitted curve.

SMILES	Potency	activity change, negative = growth inhibition
CCOc1cc(/C=N/NC(=O)c2cc3c(ccc4ccccc43)o2)ccc1O	active: 23.1 µM	–
CCN(CC)S(=O)(=O)c1ccc(NC(=O)CO/N=C(\N)c2ccccc2)cc1	inconclusive [inhibitor, single point]	–
CCOC(=O)[C@]12CCC=C1N(CCC1=CCCCC1)C(=O)[C@H](CC(=O)NCc1ccc(C)o1)C2	active: 16.4 µM	–
Cc1nn(-c2ccccc2)nc1CNC(=O)C1CC1	inconclusive [inhibitor, partial curve, poor fit]	–
Cc1nnc(C)c2c(C)n(C(C)c3ccccc3)c(C)c12 (stereo not given)	active: 16.4 µM	–
COc1ccc(CN2CCN(Cc3ccc(Br)cc3)CC2)c(OC)c1OC	inconclusive [inhibitor, single point]	–
CC1CC(C)CN(CCOc2cccc(Cl)c2Cl)C1 (stereo not given)	inconclusive [inhibitor, single point]	–
CCOC(=O)C1CCN(S(=O)(=O)c2ccc(-c3cc(C(F)(F)F)n(C)n3)s2)CC1	inactive	–
C/C(=N\Nc1nc(N2CCCCCC2)nc(N2CCCCCC2)n1)c1ccccc1	inconclusive [inhibitor, single point]	–
OCCNc1nc(Nc2cccc(O)c2)nc2ccccc12	inconclusive [inhibitor, single point]	–
O=c1[nH]c(=O)n(Cc2ccco2)c2c1C(C(F)(F)F)(C(F)(F)F)N=C(Cc1ccccc1)N2	inconclusive [inhibitor, partial curve]	–
CCOC(=O)CSc1nc2ccccc2c(=O)n1CC	inactive	–
O=C(CSc1nc(-c2cccs2)cc(C(F)(F)F)n1)Nc1cc(OCC(F)(F)C(F)F)cc([N+](=O)[O-])c1	active: 8.2 µM	–
O=C(COC(=O)c1ccccc1C(=O)N1CCN(c2ccc(F)cc2)CC1)NCc1ccccc1	inconclusive [inhibitor, single point]	–
COc1ccc(CN2CCOc3ccc(CN4CCC(Oc5cccnc5)CC4)cc3C2)cc1C	–	inactive: -10.4% [at 9.04 µM]
OC(COc1ccccc1)CN1CCN(CC(O)COc2ccccc2)CC1 (stereo not given)	inactive	–
CCN(CC)C(=S)S	active: 23.7 µM	–
COCCn1c(SCC(=O)Nc2cc(C)cc(C)c2)nc2ccccc2c1=O	inconclusive [inhibitor, single point]	–
CCn1cc(S(=O)(=O)CC(=O)Nc2ccc(C)cc2)c2ccccc21	inactive	–
CC(C)CC(C(=O)NC(C)(C)C)N(Cc1ccccc1Cl)C(=O)c1snc(C(N)=O)c1N (stereo not given)	inconclusive [inhibitor, single point]	–
NC(=O)c1c(NC(=O)CCCn2cnc([N+](=O)[O-])n2)sc2c1CCCC2	inconclusive [inhibitor, single point]	–
Cn1cc(CN2CCC(C3(c4ccccn4)NC(=O)N(CC4CCCO4)C3=O)CC2)c2ccccc21 (stereo not given)	inconclusive [inhibitor, single point]	–
Cc1ccc(C)c(-n2nnnc2SCC(=O)Nc2cccc(-c3nnc4n3CCCCC4)c2)c1	inconclusive [inhibitor, single point]	–

SMILES	Potency	activity change, negative = growth inhibition
C(=NN=Cc1c[nH]c2ccccc12)c1c[nH]c2ccccc12	inactive	–
Cc1c(-c2nnnn2-c2ccc(F)cc2)cnc2cc3c(cc12)OCO3	inconclusive [inhibitor, partial curve]	–
Cc1cc(C)n(-c2ccn(Cc3ccc(Cl)cc3Cl)c(=O)n2)n1	active: 20.6 µM	–
CCOC(=O)c1sc2nccc(N(C)C)c2c1N=CNOCc1ccccc1	inconclusive [inhibitor, single point]	–
C/C(=N\NC(=O)c1cccnc1)c1ccc(OC2OCCOC2Oc2ccc(/C(C)=N/NC(=O)c3cccnc3)cc2)cc1 (stereo not given)	inconclusive [inhibitor, single point]	–
CCOc1ccc(CNC(=O)CCCn2c(=O)c3cccn3c3cccnc32)cc1	inconclusive [inhibitor, single point]	–
CCOC(=O)C1CCCN(S(=O)(=O)c2ccc3c(c2)C(C)(C)C(=O)N3C)C1 (stereo not given)	inactive	–
Cc1ccsc1/C=N/NC(=O)CN1CCN(Cc2ccccc2)CC1	inconclusive [inhibitor, full curve, poor fit]	–
COc1ccc(N(C(=O)Cn2nnc(-c3ccc(F)cc3)n2)C(C)C(=O)NC2CCCC2)cc1 (stereo not given)	inconclusive [inhibitor, single point]	–
COc1ccc(-c2cc(-c3ccc(O)cc3)nc(N)c2C#N)cc1OC	inconclusive [inhibitor, single point]	–
O=C(Nc1ccc(C(=O)N2CCCC(CO)C2)cc1)c1ccc(Br)o1 (stereo not given)	inactive	–
Cc1nn(Cc2ccc(Cl)c(Cl)c2)c(C)c1NC(=O)c1cc(-c2ccc3c(c2)OCO3)on1	active: 18.4 µM	–
CS(=O)(=O)Nc1cccc2cccnc12	active: 4.61 µM	–
CCOc1ccc(C(=O)N2CCc3cc(OC)c(OC)cc3C2COc2ccc3c(C)cc(=O)oc3c2)cc1OCC (stereo not given)	inconclusive [inhibitor, single point]	–
CC1(C(=O)NC2CCCCCCC2)CCC(=O)N1CCN1CCOCC1 (stereo not given)	inactive	–
COc1cccc(CC(=O)OCC(=O)Nc2c(C)nn(-c3ccccc3)c2C)c1	inconclusive [inhibitor, full curve, poor fit]	–
COc1cccc(-c2sc3ccc(OC)cc3c2-c2ccc(OCCN3CCCCC3)cc2)c1	active: 18.4 µM	–
C=CCS/C(=N\n1cnc2ccccc2c1=O)N1CCCCC1	active: 25.9 µM	–
N#CC(C#N)=NNc1ccc(S(=O)(=O)N2CCCCC2)cc1	inconclusive [inhibitor, single point]	–
S=c1[nH]nc(CSc2nc3ccccc3s2)n1Cc1ccccc1	inactive	–
CCCOc1ccc(OC(=O)c2ccc(-c3ccc(CCC)cn3)cc2)cc1	inconclusive [inhibitor, single point]	–
COc1ccc2oc(=O)c(-c3cn4ccc(C)cc4n3)cc2c1	inactive	–
